# Where a name gives a salt, the structure may show the parent alone. Over roughly 2,000 compounds, “fractional viability relative to vehicle” has its median near 0.92; the lowest 2% begin near 0.11. Some of the results follow.
# System: TYKNU
# Test: fractional viability relative to vehicle; TYKNU is a high-grade serous ovarian cancer line; higher = less growth inhibition
# Settings: 72 h, genotype: OPA1 knockout (sgOPA1 #2)
# How it was run: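 TYKNU control cells or lentiCRISPRv2 knockout derivatives were seeded at 500 cells per well into drug-stamped 384-well plates holding a ~2100-compound library at 2 or 10 μM, in duplicate. Cells were grown at 37 °C in 5% CO2 in RPMI 1640 with 10% FBS, and drug treatment lasted 72 h. Viability was read by Cell Titer Glo luminescence. Duplicate treatment wells were averaged and normalised to duplicate control wells from the same plate position.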
SMILES,fractional viability (2uM),fractional viability (10uM)
O=C(NCC1(c2nc(-c3ccccc3)cs2)CCOCC1)c1cccc(-c2noc(C(F)(F)F)n2)c1,0.944,0.878
CCc1c2c(nc3ccc(O)cc13)-c1cc3c(c(=O)n1C2)COC(=O)[C@]3(O)CC,0.217,0.128
C#CCN[C@@H]1CCc2ccccc21 [Rasagiline Mesylate],0.997,0.927
COc1cc(OC2CCN(C)CC2)ccc1Nc1ncc2c(n1)n(C1CCCC1)c(=O)n2C,0.889,0.724
COc1ccc(NS(=O)(=O)c2sc3ccc(Cl)cc3c2C)cc1N1CCNCC1,0.965,0.939
CCOc1nc2cccc(C(=O)OCc3oc(=O)oc3C)c2n1Cc1ccc(-c2ccccc2-c2noc(=O)[nH]2)cc1 [Azilsartan Medoxomil],1.03,0.902
CCN(C(=O)c1c(O)c2c(Cl)cccc2n(C)c1=O)c1ccccc1 [Laquinimod],1.13,1.1
CN1CC(=O)N2[C@H](c3ccc4c(c3)OCO4)c3[nH]c4ccccc4c3C[C@@H]2C1=O [Tadalafil],1.11,1.06
CC(C)NCC(O)COc1ccc(CCOCC2CC2)cc1 (configuration not stated) [Betaxolol],0.974,1.12
CCc1nc(N)nc(N)c1-c1ccc(Cl)cc1 [Pyrimethamine],1.07,0.632
Cc1c(C(=O)NN2CCCCC2)nn(-c2ccc(Cl)cc2Cl)c1-c1ccc(I)cc1,0.982,0.754
CC(C)(OCc1nn(Cc2ccccc2)c2ccccc12)C(=O)O [Bindarit],0.959,0.766
CCCN1CCCC[C@H]1C(=O)Nc1c(C)cccc1C [Ropivacaine HCl],0.883,0.94
CC(NC(=O)c1ccccc1/N=C/c1c(O)ccc2ccccc12)c1ccccc1 (configuration not stated) [Sirtinol],0.895,0.987
Cc1cccc(-c2[nH]c(C(C)(C)C)nc2-c2ccc3c(c2)OCO3)n1,1.2,0.682
CNCc1ccc(-c2cc(-c3nc(-c4ccc(S(=O)(=O)C(C)C)cc4)cnc3N)on2)cc1,0.792,0.849
CN1CCN(CCCN2c3ccccc3Sc3ccc(C(F)(F)F)cc32)CC1 [Trifluoperazine 2HCl],1.08,0.81
CC(S)C(=O)NCC(=O)O (configuration not stated) [Tiopronin],0.996,1.07
O=C(NCc1ccccc1)c1csc(Nc2ccncn2)n1 [Thiazovivin],1.09,1.14
CNC[C@H](O)c1ccc(O)c(O)c1 [Epinephrine HCl],0.934,0.637
CNC[C@H](O)c1ccc(O)c(O)c1 [Epinephrine Bitartrate],0.973,0.749
CN(CC(=O)N(Cc1ccc(C2CCCCC2)cc1)c1ccc(C(=O)O)cc1)S(=O)(=O)c1c(F)c(F)c(F)c(F)c1F,0.662,0.0586

SMILES,fractional viability (2uM),fractional viability (10uM)
OC(CNCC(O)C1CCc2cc(F)ccc2O1)C1CCc2cc(F)ccc2O1 (configuration not stated) [Nebivolol],0.973,0.521
O=C(CCc1ccc(O)cc1)c1c(O)cc(O)cc1O [Phloretin],1.02,0.933
CC[C@H](C)[C@H](N)C1=N[C@H](C(=O)N[C@@H](CC(C)C)C(=O)N[C@H](CCC(=O)O)C(=O)N[C@H](C(=O)N[C@H]2CCCCNC(=O)[C@H](CC(N)=O)NC(=O)[C@@H](CC(=O)O)NC(=O)[C@H](Cc3cnc[nH]3)NC(=O)[C@@H](Cc3ccccc3)NC(=O)[C@H]([C@@H](C)CC)NC(=O)[C@@H](CCCN)NC2=O)[C@@H](C)CC)CS1 [Bacitracin],0.798,0.806
C=CCNC(N)=S [Allylthiourea],0.993,0.892
CNC(=O)c1cccc(-c2ccc3c(N4CCOC[C@@H]4C)nc(N4CCOC[C@@H]4C)nc3n2)c1,0.333,0.49
CN(C)CCOC(C)(c1ccccc1)c1ccccn1 (configuration not stated) [Doxylamine Succinate],1.07,0.882
COc1cccc(-c2cc(=O)c3ccccc3o2)c1N,1.42,1.36
C[C@@H](O)[C@H]1C(=O)N2C(C(=O)O)=C(S[C@@H]3CN[C@H](CNS(N)(=O)=O)C3)[C@H](C)[C@H]12 [Doripenem Hydrate],0.934,1.08
COc1cccc(-n2c(=O)[nH]c3cc(Cl)n(-c4ccc(-c5cccc(OC)c5O)cc4)c3c2=O)c1,0.827,0.807
CC(C)(C#N)c1cc(Cn2cncn2)cc(C(C)(C)C#N)c1 [Anastrozole],1.26,0.942
COc1cc2nccc(Oc3ccc(NC(=O)Nc4cc(C)on4)c(Cl)c3)c2cc1OC [Tivozanib (AV-951)],1.54,1.23
CCc1cc(Nc2nccc(-c3c(-c4ccc(OC)c(C(=O)Nc5c(F)cccc5F)c4)nc4ccccn34)n2)c(OC)cc1N1CCC(N2CCN(S(C)(=O)=O)CC2)CC1,1.15,0.975
Nc1ccn([C@H]2CC[C@@H](CO)O2)c(=O)n1 [Zalcitabine],1.22,0.908
CNC(=O)c1cc(Oc2ccc(NC(=O)Nc3cc(C(C)(C)C)nn3-c3ccc4ncccc4c3)c(F)c2)ccn1 [DCC-2036 (Rebastinib)],1.15,0.406
OC[C@H]1O[C@H](O[C@]2(CCl)O[C@H](CCl)[C@@H](O)[C@@H]2O)[C@H](O)[C@@H](O)[C@H]1Cl [Sucralose],0.873,0.764
CC(C)C[C@H](NC(=O)[C@@H](NC(=O)c1cccc(-c2ccccc2)n1)[C@@H](C)O)B(O)O,0.52,0.306
COc1ccc2c(c1)c(CC(=O)O)c(C)n2C(=O)c1ccc(Cl)cc1 [Indomethacin],1.03,0.965
CN1CCC(=C2c3ccccc3CCc3cccnc32)CC1 [Azatadine dimaleate],0.476,0.356
Nc1nc2ccc(OC(F)(F)F)cc2s1 [Riluzole],1.2,1.02
C[C@]1(O)C[C@@H](c2nc(-c3ccc4ccc(-c5ccccc5)nc4c3)c3c(N)nccn32)C1 [OSI-906 (Linsitinib)],1.06,0.889
O=C(C1CCCCC1)N1CC(=O)N2CCc3ccccc3C2C1 (configuration not stated) [Praziquantel],0.948,0.799
C[C@@H]1CCO[C@H]2Cn3cc(C(=O)NCc4ccc(F)cc4F)c(=O)c(O)c3C(=O)N12,0.952,0.964

SMILES,fractional viability (2uM),fractional viability (10uM)
O=C(O)c1cc(/N=N/c2ccc(O)c(C(=O)O)c2)ccc1O [Olsalazine Sodium],1.16,0.888
O=C(Nc1ccccc1-c1cn2c(CN3CCNCC3)csc2n1)c1cnc2ccccc2n1,1.19,0.0331
CC(C)(C)NCC(O)COc1cccc2c1CCC(=O)N2 (configuration not stated) [Carteolol HCl],0.973,0.93
CNC(=O)c1cc(Oc2ccc(NC(=O)Nc3ccc(Cl)c(C(F)(F)F)c3)c(F)c2)ccn1 [Regorafenib (BAY 73-4506)],0.986,0.64
CN(C)CC(=O)Nc1ccc2[nH]c(=O)c3ccccc3c2c1,0.837,0.964
Cc1ccccc1C(=O)Nc1ccc(C(=O)N2CCCC(O)c3cc(Cl)ccc32)c(C)c1 (configuration not stated) [Tolvaptan],1.13,0.983
CN(C)C(=O)C(CCN1CCC(O)(c2ccc(Cl)cc2)CC1)(c1ccccc1)c1ccccc1 [Loperamide HCl],0.929,0.61
CC(C(=O)O)c1ccc2c(c1)[nH]c1ccc(Cl)cc12 (configuration not stated) [Carprofen],0.864,0.992
CC(NC(=O)C(Cc1ccccc1)NC(=O)OCc1ccccc1)C(=O)CF (configuration not stated),0.845,0.801
C=CCc1cccc(/C=N/NC(=O)CN2CCN(Cc3ccccc3)CC2)c1O,0.866,0.713
O=C1c2c(O)cccc2C([C@@H]2O[C@H](CO)[C@@H](O)[C@H](O)[C@H]2O)c2cc(CO)cc(O)c21 (some centres not stated) [Aloin],0.905,0.843
O=C(Nc1cccc(C(F)(F)F)c1)Nc1cc(S(=O)(=O)NC2CC2)ccc1-c1ccsc1,0.918,0.969
C[C@H]1O[C@@H](O[C@H]2[C@@H](O)C[C@H](O[C@H]3[C@@H](O)C[C@H](O[C@H]4CC[C@@]5(C)[C@H](CC[C@@H]6[C@@H]5C[C@@H](O)[C@]5(C)[C@@H](C7=CC(=O)OC7)CC[C@]65O)C4)O[C@@H]3C)O[C@@H]2C)C[C@H](O)[C@@H]1O [Digoxin],0.141,0.0738
Cc1c(OCC(F)(F)F)ccnc1C[S@@+]([O-])c1nc2ccccc2[nH]1 [Dexlansoprazole],1,1.05
CC[C@H]1OC(=O)[C@H](C)[C@@H](O[C@H]2C[C@@](C)(OC)[C@@H](O)[C@H](C)O2)[C@H](C)[C@@H](O[C@@H]2O[C@H](C)C[C@H](N(C)C)[C@H]2O)[C@](C)(O)C[C@@H](C)C(=O)[C@H](C)[C@H]2OC(=O)O[C@@]21C [Erythromycin Cyclocarbonate],0.834,0.883
NC(=O)c1cn(Cc2c(F)cccc2F)nn1 [Rufinamide],1.29,1.15
Cc1cc(O)c2c(c1)C(=O)c1cccc(O)c1C2=O [Chrysophanic Acid],0.922,0.952
CC(C(=O)O)c1ccc(-c2ccccc2)c(F)c1 (configuration not stated) [Flurbiprofen],1.16,1.06
CN1[C@@H]2CC[C@H]1C[C@@H](OC(=O)c1c[nH]c3ccccc13)C2 [Tropisetron],1.12,1.02
Cc1cccc(C)c1OCC(C)N (configuration not stated) [Mexiletine HCl],0.885,0.881
Nc1nc(CC(=O)Nc2ccc(CCNC[C@H](O)c3ccccc3)cc2)cs1 [Mirabegron],1.01,0.924
CC[C@]1(O)C[C@H]2CN(CCc3c([nH]c4ccccc34)[C@@](C(=O)OC)(c3cc4c(cc3OC)N(C=O)[C@H]3[C@@](O)(C(=O)OC)[C@H](OC(C)=O)[C@]5(CC)C=CCN6CC[C@]43[C@@H]65)C2)C1 [Vincristine sulfate],0.579,0.343

# — the supplement of paper PMC5919970
